# Experimental data published in the supplement of paper PMC12067230.
# The data scatter; read single values as rough.
# Assay: amyloid nucleation score relative to library mode (yeast Sup35 reporter selection) (log enrichment difference); higher = more amyloid nucleation; sequences are the first 22 residues of the Bri2 peptide extended by up to 12 random residues
# Details: random library (experiment): 1;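 active = nucleation score significantly above 0 at FDR 0.05; inactive = not significantly above 0 or absent from output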
# 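Further: [psi-pin-] Saccharomyces cerevisiae expressing SupN fusions, induced by 100 µM Cu2SO4, selected 7 d at 30 °C without adenine and uracil, scored by deep sequencing of output versus input.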
row,Sequence,amyloid nucleation score
1,EASNCFAIRHFENKFAVETLICRVSGCWRTSLRK,1.89
2,EASNCFAIRHFENKFAVETLICLRRSNTGAGLCR,inactive
3,EASNCFAIRHFENKFAVETLICVGYAKR,inactive
4,EASNCFAIRHFENKFAVETLICPWEAPNGDTCPV,inactive
5,EASNCFAIRHFENKFAVETLICGYP,inactive
6,EASNCFAIRHFENKFAVETLICLCAGSRRRRSVG,6.12
7,EASNCFAIRHFENKFAVETLICAE,inactive
8,EASNCFAIRHFENKFAVETLICDQDTEEIRTGRQ,-0.732
9,EASNCFAIRHFENKFAVETLICLDR,inactive
10,EASNCFAIRHFENKFAVETLICARDHRWFWSWQK,2.41
11,EASNCFAIRHFENKFAVETLICVIVE,inactive
12,EASNCFAIRHFENKFAVETLICDGNDDSNVALST,inactive
13,EASNCFAIRHFENKFAVETLICALTFWAVKKGGG,inactive
14,EASNCFAIRHFENKFAVETLICRGSRSQSARTGM,inactive
15,EASNCFAIRHFENKFAVETLICGLACEAYKGACG,inactive
16,EASNCFAIRHFENKFAVETLICVSFVSLVASTGN,3.25
17,EASNCFAIRHFENKFAVETLICRRGYCGWAGLSR,inactive
18,EASNCFAIRHFENKFAVETLICLCCRTS,6.66
19,EASNCFAIRHFENKFAVETLICASPAGQLGGTDR,inactive
20,EASNCFAIRHFENKFAVETLICGLAPAWAYSFVP,1.69
21,EASNCFAIRHFENKFAVETLICRLGSALGRGQEP,0.547
22,EASNCFAIRHFENKFAVETLICVDSHCYNKASGD,inactive
23,EASNCFAIRHFENKFAVETLICHNRIRINFCRPE,5.13
24,EASNCFAIRHFENKFAVETLICHPSDFHGNVYCT,inactive

row,Sequence,amyloid nucleation score
1,EASNCFAIRHFENKFAVETLICWRAVLR,inactive
2,EASNCFAIRHFENKFAVETLICLRLTSIVTLEAW,inactive
3,EASNCFAIRHFENKFAVETLICRMGGSQANGGES,5.8
4,EASNCFAIRHFENKFAVETLICASYRYNRYIRLW,inactive
5,EASNCFAIRHFENKFAVETLICCAESSEDMRKRL,inactive
6,EASNCFAIRHFENKFAVETLICRSC,inactive
7,EASNCFAIRHFENKFAVETLICVITSVARRRHLV,inactive
8,EASNCFAIRHFENKFAVETLICLLRCAERTYAKG,inactive
9,EASNCFAIRHFENKFAVETLICAEEWVGNLASIA,inactive
10,EASNCFAIRHFENKFAVETLICVVLREWVLWHGW,inactive
11,EASNCFAIRHFENKFAVETLICTRAITMIGWRNA,inactive
12,EASNCFAIRHFENKFAVETLICKPLVTMGNTWNS,inactive
13,EASNCFAIRHFENKFAVETLICCTVWGSFGDIKY,8.73
14,EASNCFAIRHFENKFAVETLICLSRVQRSGKLVG,inactive
15,EASNCFAIRHFENKFAVETLICPWMKVSNVTRLA,inactive
16,EASNCFAIRHFENKFAVETLICEHWGMPVRFIRY,inactive
17,EASNCFAIRHFENKFAVETLICGEVGKERAVESG,inactive
18,EASNCFAIRHFENKFAVETLICAHWSI,3.91
19,EASNCFAIRHFENKFAVETLICMCSHRESREH,8.42
20,EASNCFAIRHFENKFAVETLICWHGRGVSEACVW,2.98
21,EASNCFAIRHFENKFAVETLICPICIDLWDLGLM,inactive
22,EASNCFAIRHFENKFAVETLICVVFGSCGVRVLP,-0.179
23,EASNCFAIRHFENKFAVETLICVVI,5.71

# Same assay, conditions: random library (experiment): 2
row,Sequence,amyloid nucleation score
1,EASNCFAIRHFENKFAVETLICGNMKFWMTKSFM,4.7
2,EASNCFAIRHFENKFAVETLICYGVDCCHYGFRL,5.46
3,EASNCFAIRHFENKFAVETLICLGIL,7.37
4,EASNCFAIRHFENKFAVETLICPLIFISDYPAYF,6.09
5,EASNCFAIRHFENKFAVETLICTVGDLFNDCLFG,5.29
6,EASNCFAIRHFENKFAVETLICGRM,inactive
7,EASNCFAIRHFENKFAVETLICLVLFRN,inactive
8,EASNCFAIRHFENKFAVETLICNKR,inactive
9,EASNCFAIRHFENKFAVETLICISCRNLDLWSMR,5.01
10,EASNCFAIRHFENKFAVETLICGALLCV,6.84
11,EASNCFAIRHFENKFAVETLICDYPCRCSANMPN,2.69
12,EASNCFAIRHFENKFAVETLICMTAVVG,1.31
13,EASNCFAIRHFENKFAVETLICVLECGLNVPGLM,4.55
14,EASNCFAIRHFENKFAVETLICALVRLLRCSRQT,inactive
15,EASNCFAIRHFENKFAVETLICLSLKYAGSIIGD,inactive
16,EASNCFAIRHFENKFAVETLICVKVCKIVFPACE,inactive
17,EASNCFAIRHFENKFAVETLICARCSPSLQEG,-0.0953
18,EASNCFAIRHFENKFAVETLICYCTWSFYSHKVF,inactive
19,EASNCFAIRHFENKFAVETLICCVDRSPEPMVWN,6.23
20,EASNCFAIRHFENKFAVETLICLDMWL,inactive
21,EASNCFAIRHFENKFAVETLICNASVNSSVYVRV,3.95
22,EASNCFAIRHFENKFAVETLICLRQFIKVYHQRH,inactive

# Same assay, conditions: random library (experiment): 3
row,Sequence,amyloid nucleation score
1,EASNCFAIRHFENKFAVETLICFTSLETNVHTRD,inactive
2,EASNCFAIRHFENKFAVETLICCLLCQITRYTVS,5.7
3,EASNCFAIRHFENKFAVETLICEEA,inactive
4,EASNCFAIRHFENKFAVETLICRVGLPAEVGLFR,inactive
5,EASNCFAIRHFENKFAVETLICMRRFYWDGPAAC,0.941
6,EASNCFAIRHFENKFAVETLICTYVISKYCHCVQ,5.26
7,EASNCFAIRHFENKFAVETLICYPDLNGSPRVAR,2.06
8,EASNCFAIRHFENKFAVETLICGLEQGARKTRPL,inactive
9,EASNCFAIRHFENKFAVETLICWVVIVRLRMSVQ,2.12
10,EASNCFAIRHFENKFAVETLICVGMAVWVAGLLL,inactive
11,EASNCFAIRHFENKFAVETLICMTPVQRY,inactive
12,EASNCFAIRHFENKFAVETLICEPLWHSSRTKVS,inactive
13,EASNCFAIRHFENKFAVETLICVGQRKVLQASPA,inactive
14,EASNCFAIRHFENKFAVETLICARVSWWNAWCVA,0.621
15,EASNCFAIRHFENKFAVETLICPSLSRNMRGWRR,inactive
16,EASNCFAIRHFENKFAVETLICTRIERSRVESMV,inactive
17,EASNCFAIRHFENKFAVETLICIRF,5.15
18,EASNCFAIRHFENKFAVETLICTYRR,inactive
